# Publication PMC4336329 (PLoS ONE, 2015)
# In all, about 310,000 compounds went through this assay and about 14,000 (4.5%) showed an effect of 50% or more. The effect is printed as a negative number. Some of the results follow.
# Target: human ether-à-go-go-related gene (hERG) potassium channel (human, UniProt Q12809)
# Assay: primary screen, population patch clamp on CHO cells stably expressing hERG
# 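Note: peak tail current of the secondary pulse compared with the same well before compound.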
# Chain of human ether-à-go-go-related gene (hERG) potassium channel (Q12809 whole entry, looked up): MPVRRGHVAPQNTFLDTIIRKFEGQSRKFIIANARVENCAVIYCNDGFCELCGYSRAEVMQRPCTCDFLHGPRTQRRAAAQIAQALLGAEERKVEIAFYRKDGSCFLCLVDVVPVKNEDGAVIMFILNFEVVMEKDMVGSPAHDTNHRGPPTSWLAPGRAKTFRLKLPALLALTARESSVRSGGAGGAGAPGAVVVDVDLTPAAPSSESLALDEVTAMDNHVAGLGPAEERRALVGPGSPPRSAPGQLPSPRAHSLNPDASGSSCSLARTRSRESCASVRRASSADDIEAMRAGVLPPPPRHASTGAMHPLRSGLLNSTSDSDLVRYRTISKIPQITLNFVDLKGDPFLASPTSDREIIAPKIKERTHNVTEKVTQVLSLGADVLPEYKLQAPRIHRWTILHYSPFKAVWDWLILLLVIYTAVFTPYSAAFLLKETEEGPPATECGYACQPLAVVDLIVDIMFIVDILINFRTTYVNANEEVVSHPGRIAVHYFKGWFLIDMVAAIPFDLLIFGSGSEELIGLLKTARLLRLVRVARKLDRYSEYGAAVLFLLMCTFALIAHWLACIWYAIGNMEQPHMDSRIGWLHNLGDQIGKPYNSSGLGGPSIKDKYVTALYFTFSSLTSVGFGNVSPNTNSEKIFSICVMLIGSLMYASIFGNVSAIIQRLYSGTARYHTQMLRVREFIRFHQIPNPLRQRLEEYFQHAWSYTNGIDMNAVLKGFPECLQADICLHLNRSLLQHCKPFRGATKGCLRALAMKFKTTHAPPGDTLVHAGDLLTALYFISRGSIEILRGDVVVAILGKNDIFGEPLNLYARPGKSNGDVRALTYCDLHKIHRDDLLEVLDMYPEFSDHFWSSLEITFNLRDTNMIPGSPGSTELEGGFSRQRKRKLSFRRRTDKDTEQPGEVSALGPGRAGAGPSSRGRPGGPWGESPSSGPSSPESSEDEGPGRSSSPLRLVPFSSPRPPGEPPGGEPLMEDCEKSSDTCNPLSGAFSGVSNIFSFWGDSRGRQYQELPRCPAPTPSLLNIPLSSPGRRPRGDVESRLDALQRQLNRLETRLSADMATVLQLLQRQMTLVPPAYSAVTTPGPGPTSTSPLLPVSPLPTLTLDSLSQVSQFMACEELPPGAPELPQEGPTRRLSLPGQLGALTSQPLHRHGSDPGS
row,Compound,"hERG current change (%, negative = inhibition) at 10uM [%]"
1,Cc1ccc(NC(=O)C2C3CCC(O3)C2C(=O)O)c(Br)c1 (centres unmarked),24.4
2,CC1CCCC(NC(=O)CN2CCN(S(=O)(=O)c3cccs3)CC2)C1C (centres unmarked),-0.883
3,COCCn1nnnc1C(c1ccccc1)N1CCN(c2ccccc2)CC1.Cl (centres unmarked),-29.3
4,CCCCn1[nH]c(-c2ccccc2)cc1=O,2.97
5,CC(C)Oc1ccc(S(=O)(=O)N2CCOCC2)cc1NC(=O)Cc1cccs1,-33.4
6,CC1CCCN(C(=O)C2CCN(CCCc3ccccc3)CC2)C1.O=C(O)C(=O)O (centres unmarked),-47.5
7,CC(=O)c1sc(N/N=C\c2ccc(N(C)C)cc2)nc1C,12.9
8,Cc1nc2ccccc2c(=O)n1NC(=O)/C=C/c1ccccc1,-16.6
9,O=C(N/N=C/c1cccnc1)c1ccc(Cl)c(Cl)c1,-1.48
10,CC1(C)Cc2c(cnn2-c2cccc(F)c2)C(NC(=O)C2CCOCC2)C1 (centres unmarked),-43.4
11,CN1CCN(C(=O)c2ccc3c(=O)n(Cc4ccco4)c(=S)[nH]c3c2)CC1,-4.06
12,O=C1c2cccnc2C(Nc2ccc(Cl)cc2)N1Cc1cccs1 (centres unmarked),9.6
13,CCO[C@H]1OC(C(=O)N2CCOCC2)=C[C@@H](c2ccccc2)[C@@H]1CCCO,-4.87
14,COc1ccc(-c2cnc(N)n2CC2CCCO2)cc1 (centres unmarked),-5.53
15,O=C(c1cc(Cl)cc(Cl)c1)N1CCN(c2cc(C(F)(F)F)nc3ccccc23)CC1,-14.8
16,Cn1cnc2ccc([N+](=O)[O-])cc2c1=O,7.82
17,Cc1ccc(S(=O)(=O)N2CCCCC2)cc1C(=O)c1nccn1C,-2.56
18,N#Cc1ccccc1NCc1ccccc1,6.33
19,Cc1ccc(S(=O)(=O)NC(=O)Nc2nc(-c3ccc(F)c(F)c3)cs2)cc1,11.3
20,Cc1ccc(Nc2nc(-c3sc(NC(=O)c4ccccc4)nc3C)cs2)cc1,12.6
21,COc1ccc2[nH]c(C)c(CCNC(=S)Nc3ccccc3OC)c2c1,8.79
22,Cc1ccc(-c2ccc(/C=C/C(=O)c3ccccc3)o2)cc1,-1.28

row,Compound,"hERG current change (%, negative = inhibition) at 10uM [%]"
1,Cc1occc1C(=O)N/N=C/C=C\c1ccccc1[N+](=O)[O-],-18.7
2,CC(=O)Nc1ccc2[nH]ccc2c1,0.471
3,COc1ccc(OCCNC(=O)Nc2cc(F)c(F)cc2Cl)cc1,-5.04
4,CC12CN3CC(C)(CN(C1)C3c1ccccc1Cl)C2O (centres unmarked),-8.03
5,NC(=O)CSc1ccc(Br)cc1,-5.33
6,COC(=O)Cn1nc(C)c2ccccc2c1=O,9.18
7,Cc1nc(N2CCOCC2)nc(N2CCN(c3ccccc3)CC2)c1[N+](=O)[O-],8.18
8,CCNC(=O)CCn1nc(-c2ccc(Cl)cc2)c2ccccc2c1=O,-29
9,CCn1cc(C(=O)N2CCN(c3ccccn3)CC2)c(=O)c2cc(S(=O)(=O)N3CCC(C)CC3)ccc21,-55.9
10,O=C(CCc1nc2ccccc2c(=O)[nH]1)NNC(=O)c1ccccc1Cl,-18.4
11,CS(=O)(=O)N(CC(=O)N1CCc2ccccc2C1)Cc1ccc(F)cc1,-14.6
12,CCCCN(C)CCNC(=O)CN1C(=O)CSc2ccc(S(=O)(=O)N3CCCC3)cc21,-3.28
13,CCO.C[C@H]1c2cccc(O)c2C(O)=C2C(=O)[C@]3(O)C(O)=C(C(N)=O)C(=O)[C@@H](N(C)C)[C@@H]3[C@@H](O)[C@@H]21.Cl.O,7.31
14,CC(=O)N1CCN(C(=O)CCc2cc(C(C)(C)C)c(O)c(C(C)(C)C)c2)CC1,3.08
15,O=C(N/N=C/c1nn(-c2ccccc2)cc1-c1ccc(Cl)cc1)c1ccncc1,18.1
16,Cc1ccccc1C(=O)NNC(=O)C(C)N1C(=O)c2ccccc2C1=O (centres unmarked),2.16
17,Cc1cc(C)c(NC(=O)c2ccc3c(c2)C(=O)N(Cc2cccnc2)C3=O)c(C)c1,13.3
18,COCCn1c(Cc2ccccc2)nnc1SCC(=O)N(C)C,14.3
19,Cc1ccccc1C(=O)N1CCC(C(=O)NCCc2ccc(S(N)(=O)=O)cc2)CC1,16.2
20,CCS(=O)(=O)c1nc(S(=O)(=O)c2ccc(Cl)cc2)c(NCCCN2CCCC2=O)s1,-24.1
21,Cc1cc(NS(=O)(=O)c2ccc(Cl)cc2)nn1CC(=O)NCc1ccco1,6.42
22,CCOc1ccc(N2C(=O)C3C(C2=O)C3(c2ccccc2)c2ccccc2)cc1 (centres unmarked),-3.59

row,Compound,"hERG current change (%, negative = inhibition) at 10uM [%]"
1,S=C1NCCOCCNC(=S)NCCOCCOCCOCCN1,10.2
2,Cc1ccccc1NC(=O)c1c([N+](=O)[O-])cnn1C,15.8
3,C[C@H]1CCCC(=O)CCCCCc2cc(O)cc(O)c2C(=O)O1,-0.0905
4,N#CCCN(CCC#N)C(=O)c1ccc(Cl)cc1,5.57
5,O=C(Nc1nc2c(s1)COc1ccccc1-2)c1cccs1,-4.39
6,CC1CCCCC1NC(=O)Cn1cccc1C(=O)c1ccccc1 (centres unmarked),8.34
7,O=C(CSc1nc2ccccc2s1)NCc1cc([N+](=O)[O-])ccc1O,9.05
8,Cc1csc(SCC(=O)Nc2ccc(C)c(F)c2)n1,-16.3
9,COCCN(C(=O)c1csnn1)C(C(=O)NC1CCCCC1)c1sccc1C (centres unmarked),-14.5
10,c1ccc(-c2nc(N3CCNCC3)nc3ccccc23)cc1,-65.2
11,COC(=O)c1sccc1NC(=O)CC1C(=O)NCCN1C(=O)c1c(F)cccc1Cl (centres unmarked),5.02
12,O=C(COC(=O)c1nsc(Cl)c1Cl)NC1CCCC1,-0.756
13,COc1ccc(C2CC(C(F)(F)F)n3ncc(C(=O)Nc4cccc(O)c4)c3N2)cc1OC (centres unmarked),4.45
14,CCN(CC)S(=O)(=O)c1cccc(NC(=O)CNC2CCCCCC2)c1.O=C(O)C(=O)O,-60.8
15,CCc1nnc2n1N=C(c1ccc(Cl)cc1)CS2,8.48
16,O=C(O)/C=C/C(=O)Nc1ccc(OC(F)(F)F)cc1Br,15.7
17,COc1ccc(C2C(C#N)=C(N)Nc3onc(C(C)(C)C)c32)c(OC)c1 (centres unmarked),3.15
18,COc1ccc(-c2nn(C)c(=O)c3ccccc23)cc1NC(=O)Cn1nc(-c2ccccc2)c2ccccc2c1=O,5.06
19,CCOP(=O)(OCC)C1NC(=O)N(c2ccccc2)C1=O (centres unmarked),11.7
20,Cc1ccc(C(=O)N/C(=C/c2ccco2)C(=O)O)cc1,-3.15
21,Cc1cc(C)cc(N(CC(=O)NC2CCCC2)C(=O)CCC(=O)Nc2nccs2)c1,11.6
22,COc1ccc(-n2ncc3c(Nc4cccc(C)c4)ncnc32)cc1,2.39

row,Compound,"hERG current change (%, negative = inhibition) at 10uM [%]"
1,O=C(CCn1nnc2ccccc21)Nc1nnc(COc2ccccc2F)s1,5.01
2,CC(=O)c1ccc2noc(-c3cccc(F)c3)c2c1,2.79
3,C=CCSc1nnc(NC(=O)C23CC4CC(CC(NC(C)=O)(C4)C2)C3)s1,2.02
4,CC(C)(C)C(=O)Nc1scc(-c2ccc(-c3ccccc3)cc2)c1C(=O)O,45.8
5,CCCC1(C(=O)OC)NC(c2cc(OC)c(OC)c(OC)c2)C2C(=O)N(CC)C(=O)C21 (centres unmarked),8.33
6,O=S(=O)(NC1CCCC1)c1ccc(S(=O)(=O)N(Cc2cccs2)CC2CCCO2)cc1 (centres unmarked),0.161
7,CCNC(=O)CSc1nnc(-c2ccccc2Br)n1-c1cccc(C(F)(F)F)c1,-14
8,COc1ccc(N/C(=N\c2nc(C)cc(C)n2)NC(C)=O)cc1OC,9.69
9,CC1CN(C(=O)c2cc3cc(Cl)ccc3[nH]2)CC(C)O1 (centres unmarked),-7.59
10,COc1ccc2[nH]c3c(c2c1)CCNC3c1ccc([N+](=O)[O-])o1.Cl (centres unmarked),-32.9
11,Cc1ccc(-n2c(Cc3cccn3C)nnc2SCC(N)=O)cc1,1.64
12,Cc1ccc(NCC(=O)N/N=C/c2cc(O)ccc2[N+](=O)[O-])cc1,-2.04
13,O=C(CCc1nc2sc3c(c2c(=O)[nH]1)CCCC3)Nc1cccc(Cl)c1,-13.7
14,CSc1nsc(SC)c1C(=O)Nc1ccc(Cl)cc1,7.75
15,C#CCOCCOCCOCCNc1nc(N2CCN(C(=O)[C@H](CCCCN)n3cc(C(N)[C@H](C)CC)nn3)CC2)nc(N2CCN(C(=O)[C@H](CCC(=O)O)n3cc(C(N)[C@H](C)CC)nn3)CC2)n1.Cl (some centres unmarked),13.5
16,Cc1ccc(S(=O)(=O)NCc2cccnc2)cc1C,-0.942
17,O=C(Nc1cccc(S(=O)(=O)N2CCCCC2)c1)c1cccs1,-18.8
18,CCN(CCCn1c(=S)[nH]c2ncccc2c1=O)c1ccccc1,5.02
19,Cc1ccc(S(=O)(=O)Nc2cccc(C(=O)NCC(C)(C)N3CCOCC3)c2)cc1F,-50.3
20,COc1ccc(S(=O)(=O)N2CCN(C(=O)c3cccnc3)CC2)cc1OC,7.39
